# Results: the supplement of paper PMC12645437, “Orthogonal IMiD-Degron Pairs Induce Selective Protein Degradation in Cells” (ACS Chemical Biology, 2025)
# This is one part of the list.
# B1: Q9UKT9 (peptide)
# chain: LSCPICGFWCTQKGNLLRHIKL
# B2: Q9UKT9 (peptide)
# chain: FWCNQCGRGFTQKGNLLRHIKL
# B3: Q9UKT9 (peptide)
# chain: LSCEICGFYCTQKGNLLRHIKL
# B4: Q9UKT9 (peptide)
# chain: FRCPQCGAKFTQKGNLLRHIKL
# B5: Q9UKT9 (peptide)
# chain: FCCPICGHFFTQKGNLLRHIKL
# B6: Q9UKT9 (peptide)
# chain: FTCNICGAFFTQKGNLLRHIKL
# B7: Q9UKT9 (peptide)
# chain: FECNQCGRQFTQKGNLLRHIKL
# B8: Q9UKT9 (peptide)
# chain: LKCNQCGFMCTQKGNLLRHIKL
# B9: Q9UKT9 (peptide)
# chain: FLCEICGHVFTQKGNLLRHIKL
# B10: Q9UKT9 (peptide)
# chain: FGCPICGHMFTQKGNLLRHIKL
# B11: Q9UKT9 (peptide)
# chain: FMCNQCGAYFTQKGNLLRHIKL
# B12: Q9UKT9 (peptide)
# chain: FGCEICGASFTQKGNLLRHIKL
# B13: Q9UKT9 (peptide)
# chain: FKCEVCGAQFTQKGNLLRHIKL
# B14: Q9UKT9 (peptide)
# chain: LWCPICGFGCTQKGNLLRHIKL
# B15: Q9UKT9 (peptide)
# chain: FYCNICGAYFTQKGNLLRHIKL
# B16: Q9UKT9 (peptide)
# chain: FGCPICGHYFTQKGNLLRHIKL
# B17: Q9UKT9 (peptide)
# chain: FFCDQCGAHFTQKGNLLRHIKL
# B18: Q9UKT9 (peptide)
# chain: FACPICGAYFTQKGNLLRHIKL
# B19: Q9UKT9 (peptide)
# chain: FTCPICGRTFTQKGNLLRHIKL
# B20: Q9UKT9 (peptide)
# chain: FTCDICGAFFTQKGNLLRHIKL
# B21: Q9UKT9 (peptide)
# chain: FRCNICGAKFTQKGNLLRHIKL
# B22: Q9UKT9 (peptide)
# chain: FCCPICGRNFTQKGNLLRHIKL
# B23: Q9UKT9 (peptide)
# chain: LFCNQCGFGCTQKGNLLRHIKL
# B24: Q9UKT9 (peptide)
# chain: FGCDQCGAMFTQKGNLLRHIKL
# B25: Q9UKT9 (peptide)
# chain: FCCPICGRKFTQKGNLLRHIKL
# B26: Q9UKT9 (peptide)
# chain: FYCPICGAKFTQKGNLLRHIKL
# B27: Q9UKT9 (peptide)
# chain: LLCNQCGFQCTQKGNLLRHIKL
# B28: Q9UKT9 (peptide)
# chain: FVCNQCGAAFTQKGNLLRHIKL
# B29: Q9UKT9 (peptide)
# chain: LHCEICGFYCTQKGNLLRHIKL
# B30: Q9UKT9 (peptide)
# chain: FRCNQCGHAFTQKGNLLRHIKL
# B31: Q9UKT9 (peptide)
# chain: FNCPQCGAPFTQKGNLLRHIKL
# B32: Q9UKT9 (peptide)
# chain: FSCPQCGAHFTQKGNLLRHIKL
# B33: Q9UKT9 (peptide)
# chain: FWCPICGRVFTQKGNLLRHIKL
# B34: Q9UKT9 (peptide)
# chain: LGCPICGFKCTQKGNLLRHIKL
# B35: Q9UKT9 (peptide)
# chain: FVCPICGRDFTQKGNLLRHIKL
# B36: Q9UKT9 (peptide)
# chain: FGCEICGHYFTQKGNLLRHIKL
# B37: Q9UKT9 (peptide)
# chain: LICEICGFHCTQKGNLLRHIKL
# B38: Q9UKT9 (peptide)
# chain: FDCSVCGHGFTQKGNLLRHIKL
# B39: Q9UKT9 (peptide)
# chain: FDCPQCGADFTQKGNLLRHIKL
# B40: Q9UKT9 (peptide)
# chain: FFCPICGHEFTQKGNLLRHIKL
# B41: Q9UKT9 (peptide)
# chain: FLCDVCGANFTQKGNLLRHIKL
# B42: Q9UKT9 (peptide)
# chain: FFCNQCGRAFTQKGNLLRHIKL
# B43: Q9UKT9 (peptide)
# chain: FDCPVCGAGFTQKGNLLRHIKL
# B44: Q9UKT9 (peptide)
# chain: FCCEICGHGFTQKGNLLRHIKL
# B45: Q9UKT9 (peptide)
# chain: LMCPICGFHCTQKGNLLRHIKL
# B46: Q9UKT9 (peptide)
# chain: FCCPICGHQFTQKGNLLRHIKL
# B47: Q9UKT9 (peptide)
# chain: LQCNQCGFYCTQKGNLLRHIKL
# B48: Q9UKT9 (peptide)
# chain: LFCNQCGFVCTQKGNLLRHIKL
# B49: Q9UKT9 (peptide)
# chain: FKCEQCGATFTQKGNLLRHIKL
# B50: Q9UKT9 (peptide)
# chain: LVCPICGFRCTQKGNLLRHIKL
# Target: no compound (DMSO)
# Assay: log2 fold change of degron read counts, EGFP-low vs EGFP+ sorted cells; higher = lower degron-EGFP level without compound (poor expression or instability)
# Settings: compound: DMSO control; 18 h
# 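Also: jurkat cells carrying a lentiviral library of mutant zinc finger degrons fused to EGFP plus mCherry, mCherry+ cells FACS sorted, degron abundance counted by next-generation sequencing.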
row,Sequence,log2 fold change of degron read counts
1,B1,1.35
2,B2,0.446
3,B3,1.06
4,B4,-0.483
5,B5,0.838
6,B6,0.273
7,B7,-0.684
8,B8,0.468
9,B9,-0.0869
10,B10,-0.384
11,B11,0.503
12,B12,-0.963
13,B13,-3.02
14,B14,2.56
15,B15,0.509
16,B16,0.648
17,B17,-0.79
18,B18,0.973
19,B19,-0.476
20,B20,-0.49
21,B21,-1.02
22,B22,-0.102
23,B23,0.919
24,B24,-0.937
25,B25,-2.08

row,Sequence,log2 fold change of degron read counts
1,B26,-1.06
2,B27,0.421
3,B28,-0.279
4,B29,1.03
5,B30,-0.104
6,B31,-0.642
7,B32,-0.252
8,B33,0.742
9,B34,1.07
10,B35,-0.0299
11,B36,-0.101
12,B37,0.0919
13,B38,0.304
14,B39,-2.05
15,B40,-0.71
16,B41,-1.64
17,B42,0.476
18,B43,-1.24
19,B44,-0.988
20,B45,0.684
21,B46,0.0414
22,B47,0.855
23,B48,1.48
24,B49,-2.92
25,B50,0.711
